Screen size: about 110,000 compounds; about 230 (0.21%) showed an effect of 50% or more. The list shows a part of the results.
What follows are compounds tested against DPAP1 (Plasmodium falciparum, UniProt Q8IIJ9) (assay: primary screen, percent inhibition; read by cleavage of a fluorogenic dipeptide substrate; higher = more effect of the substance).
Set-up: species or system P. falciparum D10 trophozoite lysates; single well
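Note: 30 min substrate incubation versus DMSO and 10 µM JCP410 controls.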

Sequence of DPAP1 (Q8IIJ9 whole entry, looked up): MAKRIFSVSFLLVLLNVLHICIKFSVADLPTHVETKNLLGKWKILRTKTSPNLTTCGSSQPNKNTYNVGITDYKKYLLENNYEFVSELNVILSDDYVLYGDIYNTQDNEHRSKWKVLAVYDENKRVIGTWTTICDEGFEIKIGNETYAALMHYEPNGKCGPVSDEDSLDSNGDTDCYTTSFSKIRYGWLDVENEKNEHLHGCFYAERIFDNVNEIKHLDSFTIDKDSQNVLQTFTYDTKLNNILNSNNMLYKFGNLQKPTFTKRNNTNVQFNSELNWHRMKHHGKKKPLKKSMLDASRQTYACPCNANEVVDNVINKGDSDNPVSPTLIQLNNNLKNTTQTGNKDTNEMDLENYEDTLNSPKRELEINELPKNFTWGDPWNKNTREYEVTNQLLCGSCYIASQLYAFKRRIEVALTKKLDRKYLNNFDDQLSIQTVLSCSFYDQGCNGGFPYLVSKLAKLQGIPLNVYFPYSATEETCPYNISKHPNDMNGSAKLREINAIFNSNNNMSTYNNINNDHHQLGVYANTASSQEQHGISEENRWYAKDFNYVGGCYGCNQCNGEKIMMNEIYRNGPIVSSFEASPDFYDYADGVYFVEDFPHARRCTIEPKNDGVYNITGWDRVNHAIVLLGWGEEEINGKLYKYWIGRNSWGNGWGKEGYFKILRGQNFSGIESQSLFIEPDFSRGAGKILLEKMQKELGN

Row | SMILES | % Inhibition @ 10 uM [%]
1 | Cn1c(=O)c2c(O)c(Cc3ccccc3)c(O)nc2n(C)c1=O | 5.48
2 | Cc1ccc(S(N)(=O)=O)cc1NC(=O)c1ccc(F)cc1 | -5.59
3 | COc1ccc(NC(=O)c2cc(-c3ccc(C)o3)nc3ccccc23)c(OC)c1 | 7.06
4 | CCCOc1ccc(CNC(=O)Cn2nc(C)c3sc4ccccc4c3c2=O)cc1 | -2.78
5 | COc1ccc(C2C(C#N)=C(N)Nc3ncnn32)cc1 (centres unmarked) | 10.5
6 | CCN(Cc1ccccc1)S(=O)(=O)c1ccc(OC)cc1 | -5.32
7 | Cc1ccc2c(=O)cc(C(=O)Nc3nc(C)c(C(=O)OCC(C)C)s3)oc2c1 | -5.08
8 | COC(=O)c1ccc2nc(C)c(CN(C)C)c(O)c2c1 | -4.84
9 | CCCC(=O)c1ccc(N2CCN(C(=O)c3cccc(F)c3F)CC2)c(F)c1 | -7.15
10 | O=C(Nc1nnc(SCCN2C(=O)c3ccccc3S2(=O)=O)s1)c1ccccc1 | -3.53
11 | Cc1cccc(C(=O)Nc2cccc(C#N)c2)c1 | 1.13
12 | COc1ccccc1OCCCCN1CCC(C)CC1 | -3.04
13 | Clc1ccccc1-c1nnc(COc2ccc3ccccc3c2)o1 | 5.29
14 | CCOc1ccccc1NC1=C(Cl)C(=O)N(c2cc(Cl)ccc2OC)C1=O | -0.941
15 | COc1ccc(CCNC(=O)c2nn(C)cc2Cl)cc1 | 0.413
16 | O=C1CSC2=NCN(c3cccc(Cl)c3)CN12 | -4.21
17 | CO/C(=N\C1CCCCC1)C(O)c1c[nH]c2ccccc12 (centres unmarked) | 2.06
18 | Cc1cc(OCC(O)CN2CCN(c3ccccc3F)CC2)ccc1Cl (centres unmarked) | -7.93
19 | COc1ccc(NC(=O)C2CC(=O)N(c3ccc(OC(C)C)cc3)C2)cc1 (centres unmarked) | -2.03
20 | COc1ccc2c(C)c(CC(=O)NCc3ccc4c(c3)OCO4)c(=O)oc2c1C | 2.54
21 | COc1ccc(CC(=O)NCCN2CCCC2)cc1 | 1.29
22 | COc1ccc2occ(C(=O)/C=C/N(C)C)c2c1 | 4.56
23 | CCOc1ccc(-c2cc3nc(C4CCN(C(=O)OC(C)(C)C)CC4)c(C(=O)O)cn3n2)cc1 | -1.08
24 | Oc1ncc(CN2CCCCC2)c(O)n1 | 0.135
25 | COc1ccc(S(=O)(=O)N(CC(=O)N2CCc3ccccc3C2)c2ccc(F)cc2)cc1OC | -6.38

Row | SMILES | % Inhibition @ 10 uM [%]
26 | CC1CC(C)CN(C(=O)c2ccc(CSc3nc4ccncc4[nH]3)cc2)C1 (centres unmarked) | -1.58
27 | CC(C)CCn1c(=O)c2ccccc2n2c(CCC(=O)NCCc3ccc(Cl)cc3)nnc12 | 0.277
28 | CCOC(=O)c1[nH]c2ccccc2c1NC(=O)C12CC3CC(CC(C3)C1)C2 | 2.17
29 | COc1ccc(CCNC(=O)CSc2nc(NCc3ccccc3)c3ccccc3n2)cc1OC | -0.823
30 | Cc1cc(C)nc(NS(=O)(=O)c2ccc(NC(=O)c3ccccc3C(=O)O)cc2)n1 | -11.7
31 | O=C(O)c1ncccc1C(=O)N1CCN(C(=O)c2ccco2)CC1 | -1.22
32 | O=C1/C(=C/c2ccco2)CCc2c1cnc1ccc3ccccc3c21 | -5.15
33 | Cc1ccc2[nH]c(C)c(/C=C3\C(=N)N4N=C(N5CCOCC5)SC4=NC3=O)c2c1 | -3.44
34 | CCOc1cc(C2CC(=O)Nc3c2c(=O)nc(SCC)n3C)ccc1O (centres unmarked) | 3.65
35 | CCCN1CCN(C(=O)c2ccc3c(Cl)c4c(nc3c2)CCCC4)CC1 | 0.232
36 | O=C(NC1CCCCCC1)c1cncc(Br)c1 | -0.68
37 | CCCNC(=O)c1cc(Cl)cc(Cl)c1NC(=O)c1ccc(OC)cc1 | 4.31
38 | Cc1ccc(OCC(=O)Nc2ccc(NC(=O)COc3ccc(C)cc3)cc2)cc1 | -3.92
39 | CCCCNC(=O)OCCNS(=O)(=O)c1ccccc1[N+](=O)[O-] | 2.5
40 | Cn1nccc1C(=O)Nc1cnn(Cc2ccc(F)cc2)c1 | 2.64
41 | O=C(Nc1ccc(Cl)cc1)Nc1cccc2c(=O)[nH][nH]c(=O)c12 | -1.91
42 | Cc1cc(NC(=O)C2CC(c3ccccc3F)=NO2)no1 (centres unmarked) | -0.431
43 | O=C(NCc1nc(-c2ccccc2)no1)c1cccs1 | -8.69
44 | Cc1ccc2oc(=O)c3cc(C(=O)Nc4nc(C)cs4)sc3c2c1 | 4.15
45 | C=CCOc1cccc(/C=C2/N=C(C)C(C(=O)OC)=C2O)c1 | 1.81
46 | COc1nc2c(C)cccc2cc1-c1noc(-c2cccnc2)n1 | -0.671
47 | CC(C)C(=O)N1CCN(CCNC=C2C(=O)N(C)C(=O)N(C)C2=O)CC1 | -0.736
48 | O=C(NCc1cccc(C(F)(F)F)c1)C1CCCN(c2cnccn2)C1 (centres unmarked) | 5.43
49 | O=C(O)C1CCC(C/N=c2\cc(O)oc3ccccc23)CC1 (centres unmarked) | 1.76
50 | COc1ccc(/C=C(\C#N)c2nc(-c3ccc(OC)cc3)cs2)cc1 | 0.467

From article PMC6919601, “Identification of Plasmodium dipeptidyl aminopeptidase allosteric inhibitors by high throughput screening” (PLoS ONE, 2019)
